# Results: article PMC6212790
# The list shows a part of the results. At the low end of the ranking the order means little.
# Biological target: T1, GST-Rok (full length) (UniProt O34857)
# T1 sequence: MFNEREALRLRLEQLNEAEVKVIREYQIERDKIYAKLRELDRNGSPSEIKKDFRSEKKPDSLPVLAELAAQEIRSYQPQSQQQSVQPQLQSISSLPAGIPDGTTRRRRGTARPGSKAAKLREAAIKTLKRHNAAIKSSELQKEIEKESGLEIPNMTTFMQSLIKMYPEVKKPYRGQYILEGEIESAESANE
# Experiment: protein binding microarray;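 note: rank score from −0.5 (least bound) to 0.5 (best bound)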
# Details: Rok is a gene silencer of Bacillus subtilis; high values mean tight binding; most listed sequences are background and not binding sites; double strand, one strand shown
row,Sequence,binding signal
1,GACCCTGA,-0.187 E-score
2,ACAATCGG,0.00195 E-score
3,CTCCGCTC,-0.179 E-score
4,CAGATAGA,0.172 E-score
5,GCGACAGC,0.0123 E-score
6,AAACGGAG,-0.139 E-score
7,CCGGGATA,-0.0223 E-score
8,ACGTAATG,0.283 E-score
9,AGGACGGC,-0.382 E-score
10,GGGTCCAA,-0.437 E-score
11,CAATCAGA,-0.175 E-score
12,GTAACGGA,0.131 E-score
13,AAAAAGCT,-0.0996 E-score
14,AGAGGTCC,-0.347 E-score
15,AAGTGGCG,-0.151 E-score
16,CTTGTTTC,0.0903 E-score
17,ATTCATAC,0.287 E-score
18,ACCGCGAA,-0.012 E-score
19,CACGACTC,-0.145 E-score
20,CGTGCACG,-0.0911 E-score
21,ATCGGATG,-0.135 E-score
22,ATCCCACC,-0.0759 E-score

row,Sequence,binding signal
1,ATACTGTC,0.0898 E-score
2,CCGACCGA,-0.323 E-score
3,CTCGTCAA,-0.25 E-score
4,GGGACCCC,-0.469 E-score
5,ACTTTCCT,0.0212 E-score
6,ACGCGCCC,-0.301 E-score
7,AATAAACT,0.249 E-score
8,AGCGTGTG,-0.0505 E-score
9,TCGGAACA,-0.259 E-score
10,CTTTCCGC,0.0623 E-score
11,ACAATGAA,0.0945 E-score
12,ACAATTCG,0.135 E-score
13,ATGCCTCG,-0.0672 E-score
14,ACGGAGGA,-0.33 E-score
15,CAGCAATA,0.234 E-score
16,ACATAACT,0.347 E-score
17,AGCTGTCA,-0.0404 E-score
18,GGACCAAA,-0.189 E-score
19,AAGTTGCG,0.0909 E-score
20,AAAAGGGT,-0.042 E-score
21,ACCAGAAT,-0.0312 E-score
22,GCTACACC,-0.162 E-score

row,Sequence,binding signal
1,GGCTCGCA,-0.271 E-score
2,ACACTGTC,-0.0285 E-score
3,ATGATCAC,-0.0615 E-score
4,CGCGAGTA,0.0486 E-score
5,GGCGTTGA,-0.0967 E-score
6,CGGGAACC,-0.317 E-score
7,ATATGCCC,-0.0425 E-score
8,CATCAATC,-0.0843 E-score
9,CTCCAGCA,-0.0281 E-score
10,AACCTTGG,-0.222 E-score
11,ATCGTTAC,-0.0072 E-score
12,ATTGTTGC,0.08 E-score
13,GGGGAGCA,-0.364 E-score
14,GCGCAAAC,0.121 E-score
15,AGCAAGAC,-0.158 E-score
16,AAAAGGAG,-0.188 E-score
17,ATACTATA,0.396 E-score
18,GCAGCGTA,-0.0665 E-score
19,ACTGGCAG,-0.148 E-score
20,AGTACTAC,0.389 E-score
21,AGCCCGAG,-0.276 E-score
22,GGTCTGAA,-0.116 E-score

row,Sequence,binding signal
1,AAGCCCAC,-0.234 E-score
2,ACCTACGT,0.16 E-score
3,TCGCCCCA,-0.17 E-score
4,CGCTAGAC,-0.00499 E-score
5,CCATCCAC,-0.1 E-score
6,AACATATT,0.323 E-score
7,CAATCCCC,-0.177 E-score
8,ACCACCAC,-0.186 E-score
9,GGATTTAC,0.113 E-score
10,AAGGCTAG,-0.041 E-score
11,AGTAGCAA,0.267 E-score
12,CGTCGAGC,-0.0815 E-score
13,CGTTTCTC,-0.117 E-score
14,GTCTCAAA,-0.0608 E-score
15,ACAGATGA,-0.0766 E-score
16,CGTATCAA,-0.00638 E-score
17,TCTAAACA,-0.0459 E-score
18,GGTATGGA,-0.0226 E-score
19,ATCCTTCG,-0.181 E-score
20,CAAATATA,0.345 E-score
